# Article PMC4336329 (PLoS ONE, 2015)
# About 2,200 (0.71%) of roughly 310,000 compounds showed an effect of 50% or more. The effect is printed as a negative number. The list shows a part of the results.
# Target: human ether-à-go-go-related gene (hERG) potassium channel (human, UniProt Q12809)
# Assay: primary screen, population patch clamp on CHO cells stably expressing hERG
# Sequence of human ether-à-go-go-related gene (hERG) potassium channel (Q12809 whole entry, looked up): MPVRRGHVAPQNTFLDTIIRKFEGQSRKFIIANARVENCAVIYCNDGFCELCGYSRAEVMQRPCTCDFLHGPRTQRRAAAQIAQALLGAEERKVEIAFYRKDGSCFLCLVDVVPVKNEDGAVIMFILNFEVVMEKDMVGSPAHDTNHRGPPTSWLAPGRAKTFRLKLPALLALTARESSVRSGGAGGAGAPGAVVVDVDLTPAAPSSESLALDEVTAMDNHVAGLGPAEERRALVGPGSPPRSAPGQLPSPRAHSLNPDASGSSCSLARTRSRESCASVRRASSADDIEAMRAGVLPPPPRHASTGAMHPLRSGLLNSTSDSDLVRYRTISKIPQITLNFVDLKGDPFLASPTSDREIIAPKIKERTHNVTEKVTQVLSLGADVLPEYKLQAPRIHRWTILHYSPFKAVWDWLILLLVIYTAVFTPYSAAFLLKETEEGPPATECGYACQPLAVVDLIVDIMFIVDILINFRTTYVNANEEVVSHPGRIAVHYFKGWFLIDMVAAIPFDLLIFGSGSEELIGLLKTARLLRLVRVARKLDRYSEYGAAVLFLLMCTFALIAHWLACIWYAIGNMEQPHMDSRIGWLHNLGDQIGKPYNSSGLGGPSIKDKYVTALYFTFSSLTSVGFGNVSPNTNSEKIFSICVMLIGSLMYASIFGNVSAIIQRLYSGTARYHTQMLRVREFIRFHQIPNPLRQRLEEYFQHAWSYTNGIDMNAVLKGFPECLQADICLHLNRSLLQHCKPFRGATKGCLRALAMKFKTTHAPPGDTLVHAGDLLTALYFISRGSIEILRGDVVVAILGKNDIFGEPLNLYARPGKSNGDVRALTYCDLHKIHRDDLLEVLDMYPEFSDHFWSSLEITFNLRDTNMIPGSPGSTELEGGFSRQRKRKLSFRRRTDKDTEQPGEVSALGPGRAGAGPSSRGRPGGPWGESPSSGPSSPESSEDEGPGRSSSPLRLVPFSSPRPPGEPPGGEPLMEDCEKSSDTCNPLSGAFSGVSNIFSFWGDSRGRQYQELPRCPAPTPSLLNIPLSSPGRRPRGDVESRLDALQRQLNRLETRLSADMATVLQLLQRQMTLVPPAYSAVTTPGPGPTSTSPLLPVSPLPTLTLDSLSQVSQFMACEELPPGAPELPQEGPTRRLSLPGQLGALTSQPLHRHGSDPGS
row,SMILES,"hERG current change (%, negative = inhibition) at 1uM [%]"
1,Cc1ccc(/C=N\Nc2cn[nH]c(=O)c2Cl)cc1,-2.76
2,COc1ccc(CC(=O)Nc2ccc(S(=O)(=O)N3CCN(C)CC3)cc2)cc1,10.7
3,COc1cc(C2C(C#N)=C(N)Oc3cc(N)ccc32)cc(OC)c1OC (stereo not shown),12.1
4,CCn1c(CSc2nc(C)cc(C)n2)nnc1SCC(=O)Nc1nc(-c2ccccc2)cs1,-13.4
5,O=C(Nc1ccccc1C(=O)OCC(=O)N1CCc2ccccc2C1)c1ccco1,1.03
6,COc1ccc(C2NC(=S)N3C(c4ccc(OC)cc4)NC(=S)N23)cc1 (stereo not shown),11.2
7,CCCCn1c(=O)[nH]c(=O)c2c1nc(-c1cc3c(cc1Br)OCO3)n2C,8.18
8,O=C(c1nn2c(C(F)(F)F)cc(-c3ccc(F)cc3)nc2c1Cl)N1CCOCC1,3.18
9,Cc1ccccc1C(=O)Nc1cccc(C(=O)N/N=C/c2ccc3c(c2)OCO3)c1,7.27
10,Cc1occc1-c1nnc(SCC(=O)NC2CC2)n1C(C)C,19.1
11,COc1cccc(CNC(=O)CCc2nnc(C3CCCCC3)o2)c1,3.18
12,N/C(=N\OC(=O)c1cccc([N+](=O)[O-])c1)c1ccccn1,13.4
13,CC(=O)Nc1sc2c(c1C#N)CCC2,9.2
14,CCOc1ccc(/C=C/C(=O)c2ccccc2)cc1OC,9
15,CCOc1ccccc1NC(=O)N1CCCC(c2nc(-c3ccc(C)o3)no2)C1 (stereo not shown),-10.7
16,COc1cc2c(cc1NC(=O)c1cccc([N+](=O)[O-])c1)oc1ccccc12,1.58
17,CN(C)c1ccc(NC(=S)NC(=O)/C=C/c2ccco2)cc1,11.9
18,CC(=O)c1nc(N2C(=O)CC(Cc3ccccc3)C2=O)sc1C (stereo not shown),-1.13
19,O=C(N/N=C/c1c(F)c(F)c(F)c(F)c1F)c1ccc(Cn2cc(Br)cn2)o1,1.3
20,CCCCn1c(N)c(N(CC)C(=O)c2ccc(Cl)c([N+](=O)[O-])c2)c(=O)[nH]c1=O,15.7
21,CCOc1ccc(NC(=O)c2ccc3c(SCC(=O)O)c4c(nc3c2)CCCC4)cc1,11.6
22,Cc1ccccc1C(=O)Oc1ccccc1N1C(=O)C2CC=CCC2C1=O (stereo not shown),4.5
23,COc1ccc(-c2nnn(Cc3ccccc3)n2)cc1OC,13.8
24,Cc1ccc(C2CN(C)CC2C(=O)c2ccc(F)cc2)cc1 (stereo not shown),-2.34
25,CCCCN1C=C(C(=O)OC)C(c2ccccc2Cl)C(C(=O)OC)=C1,-10.2
26,COC(=O)c1[nH]c2c(c1C)C(=O)CC(c1cccc(OC)c1)C2 (stereo not shown),-4.82
27,CCOC(=O)N1C2=NC(C(=O)OC)=C(C(=O)OC)[C@@H]3Nc4ccccc4[C@]23C[C@H]1C(=O)OC,9.36
28,COc1cc2c(cc1OC)CN(C(=O)c1ccc3nc[nH]c3c1)CC2,-5.84

row,SMILES,"hERG current change (%, negative = inhibition) at 1uM [%]"
1,CCOC(=O)c1cn2nc(Oc3ccc(OC)cc3)ccc2n1,14.2
2,COc1ccc(/C=C/c2cc[n+](C(=O)Cc3ccccc3)cc2)cc1.[Cl-],-9.08
3,COc1cccc(/C=N/NC(N)=S)c1OS(=O)(=O)c1ccccc1,8.37
4,CCCCN(C1CCS(=O)(=O)C1)S(=O)(=O)c1ccc(C(C)C)cc1 (stereo not shown),9.29
5,COc1ccc2c(c1)C(=O)Cc1ccccc1O2,12
6,Cc1c(NC(=S)N/N=C/c2ccc(Br)cc2)c(=O)n(-c2ccccc2)n1C,14.6
7,CCCCNC(=O)[C@H]1C[C@H]1[C@@H](O)[C@H](CO)NC(=O)[C@H](COCc1ccccc1)NC(=O)OC(C)(C)C,17.7
8,Cc1cc(C)c(OCC(=O)OCCNC(=O)c2cccnc2)c(C)c1.Cl,7.13
9,COc1ccc(C)cc1Nc1c2c(nc3ccccc13)CCC2,-3.07
10,CCN(CC(=O)Nc1c(F)cccc1F)C(=O)C1CCN(C(=O)Nc2ccccc2)CC1,6.63
11,CSc1ccc(NC(=O)C(C)N2CCN(C)CC2)cc1.O=C(O)C(=O)O (stereo not shown),7.99
12,CCC(CCC(=O)Nc1cccc([N+](=O)[O-])c1)C(=O)O (stereo not shown),9.87
13,O=C(CN(C(=O)Cn1nnc(-c2cccs2)n1)c1ccc2c(c1)OCCO2)NC1CCCCC1,8.84
14,COc1cc(C(CC(=O)Nc2ccc(Cl)cn2)N2Cc3ccccc3C2=O)cc(OC)c1OC (stereo not shown),-41.3
15,Cn1nc(C(=O)Nc2ccc(S(=O)(=O)N3CCCCC3)cc2)ccc1=O,1.27
16,CCOc1cc(C#N)ccc1OCC(=O)N1CCN(C(=O)c2cccs2)CC1,-16.1
17,CC(CN1CCOCC1)OC(=O)Cc1ccc(Cl)cc1.Cl (stereo not shown),8.59
18,COC(=O)c1ccc(NC(=O)CSc2nc3[nH]ncc3c(=O)[nH]2)cc1,17.5
19,O=C(c1ccc(F)cc1)N1CCCC(C(=O)N2CCCCC2)C1 (stereo not shown),13.5
20,CC1=C(C(=O)OC(C)C)C(c2ccsc2)NC(=O)N1C (stereo not shown),17.1
21,CCOC(=O)Cn1nc(C)n(-c2ccc(C(C)(C)C)cc2)c1=O,-1.17
22,Cc1nnc(SCC(=O)Nc2ccccc2)c2ccccc12,13.8
23,Clc1cccc(Nc2nc(-c3ccncc3)cs2)c1,13.3
24,O=C1Nc2ccccc2N(O)N1c1cc(-c2ccccc2Cl)no1,6.52
25,O=C(O)CC1Sc2nc3ccccc3n2C1=O (stereo not shown),0.0821
26,CN1CCN(CCNC(=O)c2ccc3nc(-c4ccc(F)cc4)c(-c4ccc(F)cc4)nc3c2)CC1,4.3
27,N#Cc1nc(Cc2cccc3ccccc23)oc1N1CCCCC1,5.23
